Laboratory results from the supplement of paper PMC4604168 (melanoma cell lines).
The other results are listed elsewhere or left out. Repeats are few or missing, and single values can be far off.

System: RPMI7951
Assay: cell count relative to DMSO control; melanoma cells; higher = more viable cells
Conditions: library dose: standard library concentration; 72 h
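Further: cells treated in 1,536-well plates, then fixed and DAPI-stained, with nuclei counted from automated high-throughput microscope images.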

**Q.** Which cell count does the source give for `CS(=O)(=O)CCNCc1ccc(-c2ccc3ncnc(Nc4ccc(OCc5cccc(F)c5)c(Cl)c4)c3c2)o1` [lapatinib] + O=C(O)C(=O)Nc1sc2c(c1C(=O)O)CCNC2 [TCS401] (first compound 4 µM, partner dose 8.33333 µM) here?
**A.** Its cell count is 75.8%.

**Q.** How did the cell count turn out when `CN1CCN(c2ccc3nc(-c4c(N)c5c(F)cccc5[nH]c4=O)[nH]c3c2)CC1` [Dovitinib] + CC1(C)NC(=O)N(c2ccc([N+](=O)[O-])c(C(F)(F)F)c2)C1=O [nilutamide] (first compound 0.5 µM, partner dose 5 µM) was run?
**A.** Its cell count is 101%.

**Q.** How did the cell count turn out when `CS(=O)(=O)CCNCc1ccc(-c2ccc3ncnc(Nc4ccc(OCc5cccc(F)c5)c(Cl)c4)c3c2)o1` [lapatinib] + C[C@@H]1CCN(C(=O)CC#N)C[C@@H]1N(C)c1ncnc2[nH]ccc12 [CP690550] (first compound 4 µM, partner dose 5 µM) was run?
**A.** Its cell count is 67.3%.

**Q.** Which cell count does the source give for `C[C@@H](Oc1cc(-c2cnn(C3CCNCC3)c2)cnc1N)c1c(Cl)ccc(F)c1Cl` [Crizotinib] + C[C@@H]1CCN(C(=O)CC#N)C[C@@H]1N(C)c1ncnc2[nH]ccc12 [CP690550] (first compound 1 µM, partner dose 5 µM) here?
**A.** The cell count was 96.4%.

**Q.** How did the cell count turn out when `C[C@@H](Oc1cc(-c2cnn(C3CCNCC3)c2)cnc1N)c1c(Cl)ccc(F)c1Cl` [Crizotinib] + NC(=O)Nc1cc(-c2cccc(F)c2)sc1C(=O)N[C@H]1CCCNC1 [AZD7762] (first compound 1 µM, partner dose 0.1 µM) was run?
**A.** The cell count was 31.5%.

**Q.** `CN1CCN(c2ccc3nc(-c4c(N)c5c(F)cccc5[nH]c4=O)[nH]c3c2)CC1` [Dovitinib] + N#Cc1c(O)c2c(-c3ccc(-c4ccccc4O)cc3)csc2[nH]c1=O [A769662] (first compound 0.5 µM, partner dose 10 µM) was tested. Which cell count did it give?
**A.** The cell count was 64.6%.

**Q.** With `CN1CCN(c2ccc3nc(-c4c(N)c5c(F)cccc5[nH]c4=O)[nH]c3c2)CC1` [Dovitinib] + C#Cc1cccc(Nc2ncnc3cc(OCCOC)c(OCCOC)cc23)c1 [erlotinib] (first compound 0.5 µM, partner dose 4 µM) as the compound, how does the cell count read?
**A.** Its cell count is 60.7%.

**Q.** How did the cell count turn out when `CN1CCN(c2ccc3nc(-c4c(N)c5c(F)cccc5[nH]c4=O)[nH]c3c2)CC1` [Dovitinib] + O=C(O)C(=O)Nc1sc2c(c1C(=O)O)CCNC2 [TCS401] (first compound 0.5 µM, partner dose 8.33333 µM) was run?
**A.** Its cell count is 99.7%.

**Q.** Which cell count does the source give for `C[C@@H](Oc1cc(-c2cnn(C3CCNCC3)c2)cnc1N)c1c(Cl)ccc(F)c1Cl` [Crizotinib] + Cn1nnc2c(C(N)=O)ncn2c1=O [temozolomide] (first compound 1 µM, partner dose 10 µM) here?
**A.** The cell count was 77.5%.

**Q.** Which cell count does the source give for `C=CCNC1=C2C[C@@H](C)C[C@H](OC)[C@H](O)[C@@H](C)/C=C(\C)[C@H](OC(N)=O)[C@@H](OC)/C=C\C=C(/C)C(=O)NC(=CC1=O)C2=O` [Tanespimycin] + OCCn1cc(-c2cnc3nnn(Cc4ccc5ncccc5c4)c3n2)cn1 [PF04217903] (first compound 0.01 µM, partner dose 5 µM) here?
**A.** The cell count was 24.7%.

**Q.** For `C[C@@H](Oc1cc(-c2cnn(C3CCNCC3)c2)cnc1N)c1c(Cl)ccc(F)c1Cl` [Crizotinib] + C=CCn1c(=O)c2cnc(Nc3ccc(N4CCN(C)CC4)cc3)nc2n1-c1cccc(C(C)(C)O)n1 [MK1775] (first compound 1 µM, partner dose 0.1 µM), which cell count is on record?
**A.** The cell count was 82.5%.

**Q.** Which cell count does the source give for `C=CCNC1=C2C[C@@H](C)C[C@H](OC)[C@H](O)[C@@H](C)/C=C(\C)[C@H](OC(N)=O)[C@@H](OC)/C=C\C=C(/C)C(=O)NC(=CC1=O)C2=O` [Tanespimycin] + OCc1c[nH]c2ccccc12 [Indole-3-carbinol] (first compound 0.01 µM, partner dose 4 µM) here?
**A.** The cell count was 21.7%.

**Q.** `CS(=O)(=O)CCNCc1ccc(-c2ccc3ncnc(Nc4ccc(OCc5cccc(F)c5)c(Cl)c4)c3c2)o1` [lapatinib] + NC(=O)Nc1cc(-c2cccc(F)c2)sc1C(=O)N[C@H]1CCCNC1 [AZD7762] (first compound 4 µM, partner dose 0.1 µM) was tested. Which cell count did it give?
**A.** The cell count was 28.8%.

**Q.** For `CN1CCN(c2ccc3nc(-c4c(N)c5c(F)cccc5[nH]c4=O)[nH]c3c2)CC1` [Dovitinib] + Nc1ncn([C@H]2C[C@H](O)[C@@H](CO)O2)c(=O)n1 [decitabine] (first compound 0.5 µM, partner dose 0.5 µM), which cell count is on record?
**A.** The cell count was 80.8%.
